This is one part of the list. No stated cut-off is given here; in the data, active = 3.2 or more and inactive = the rest. Most of these values are background signal.
B1: EXPH5_Y782_D777N (peptide)
chain: NTSKMYIPHTD
B2: F12_Y53 (peptide)
chain: HFPFQYHRQLY
B3: F5_Y2149_Y2149C (peptide)
chain: LSSEMCVKSYT
B4: F5_Y2153 (peptide)
chain: MYVKSYTIHYS
B5: F8_Y1990_YF (peptide)
chain: RKKEEYKMALF
B6: ETNPPL_Y189 (peptide)
chain: DSASAYADEVK
B7: F10_Y384 (peptide)
chain: MLEVPYVDRNS
B8: F8_Y442_R437Q (peptide)
chain: QIGRKYKKVRF
B9: F8_Y442_Y442C (peptide)
chain: RIGRKCKKVRF
B10: ETV6_Y401_R399C_YF (peptide)
chain: RALCHYFKLNI
B11: ETFDH_Y172 (peptide)
chain: NNHGNYIVRLG
B12: F8_Y450_Y450N (peptide)
chain: VRFMANTDETF
B13: F8_Y442_I438F (peptide)
chain: RFGRKYKKVRF
B14: EXO1_Y284_N279S (peptide)
chain: SNTFLYQLVFD
B15: ETV6_Y402_R399C (peptide)
chain: ALCHYYKLNII
B16: EZH2_Y641_Y641F (peptide)
chain: EFISEFCGEII
B17: EXO1_Y284 (peptide)
chain: NNTFLYQLVFD
B18: F5_Y2153_M2148T_YF (peptide)
chain: TFVKSYTIHFS
B19: F8_Y1990_R1985Q (peptide)
chain: QKKEEYKMALY
B20: F11_Y608_Y608H (peptide)
chain: ERPGVHTNVVE
B21: F10_Y384_V382A (peptide)
chain: MLEAPYVDRNS
B22: EZR_Y499 (peptide)
chain: AEPTGYSAELS
B23: F12_Y53_Y53C (peptide)
chain: HFPFQCHRQLY
B24: F11_Y521 (peptide)
chain: VTGWGYRKLRD
B25: F5_Y2149_Y2149C_YF (peptide)
chain: LSSEMCVKSFT
B26: ETV6_Y402 (peptide)
chain: ALRHYYKLNII
B27: ESD_Y262_YF (peptide)
chain: GFDHSYFFIAT
B28: ESD_Y262_G257D_YF (peptide)
chain: DFDHSYFFIAT
B29: F8_Y1728_D1727V (peptide)
chain: ERLWVYGMSSS
B30: F5_Y2153_YF (peptide)
chain: MFVKSYTIHFS
B31: ETHE1_Y38 (peptide)
chain: SCTFTYLLGDR
B32: F8_Y450 (peptide)
chain: VRFMAYTDETF
B33: F2_Y434 (peptide)
chain: HSRTRYERNIE
B34: F8_Y442_G439S (peptide)
chain: RISRKYKKVRF
B35: ESD_Y262 (peptide)
chain: GYDHSYYFIAT
B36: F8_Y450_T454I (peptide)
chain: VRFMAYTDEIF
B37: F11_Y608 (peptide)
chain: ERPGVYTNVVE

The binders below were run against SHP2 C-SH2 domain E139D (assay: enrichment score (SH2-bound / input frequency) (ratio); bacterial display of known human phosphotyrosine sites (pTyr-Var adds point mutants) read by sequencing; higher = stronger binding; tyrosines were phosphorylated by kinases first). Conditions: peptide library: pTyr-Var.
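Further: displayed peptides selected on beads carrying the immobilized SH2 domain, with library peptides lacking any tyrosine serving as negative controls.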

Binder | enrichment score
B1 | inactive: 0.775
B2 | active: 3.74
B3 | inactive: 0.576
B4 | inactive: 0.965
B5 | inactive: 0.714
B6 | inactive: 0.44
B7 | inactive: 0.752
B8 | inactive: 0.221
B9 | inactive: 0.205
B10 | active: 3.27
B11 | inactive: 1.04
B12 | inactive: 1.06
B13 | inactive: 0.203
B14 | inactive: 1.7
B15 | inactive: 3.05
B16 | inactive: 0.848
B17 | inactive: 1.78
B18 | inactive: 1.19
B19 | inactive: 0.995

Binder | enrichment score
B20 | inactive: 0.752
B21 | inactive: 0.928
B22 | inactive: 0.544
B23 | inactive: 2.16
B24 | inactive: 0.266
B25 | inactive: 0.605
B26 | inactive: 3.04
B27 | inactive: 0.622
B28 | inactive: 0.703
B29 | inactive: 0.616
B30 | inactive: 0.905
B31 | inactive: 0.774
B32 | inactive: 1.06
B33 | inactive: 0.821
B34 | inactive: 0.324
B35 | inactive: 0.949
B36 | inactive: 1.14
B37 | inactive: 0.876

What follows are binders tested against SHP2 C-SH2 domain wild-type in the same assay as above. Conditions: peptide library: pTyr-Var.

Binder | enrichment score
B1 | inactive: 0.636
B2 | inactive: 3.12
B3 | inactive: 0.531
B4 | inactive: 1.01
B5 | inactive: 0.626
B6 | inactive: 0.3
B7 | inactive: 1
B8 | inactive: 0.535
B9 | inactive: 0.295
B10 | inactive: 3.09
B11 | inactive: 1.12
B12 | inactive: 0.953
B13 | inactive: 0.284
B14 | inactive: 2.32
B15 | inactive: 3.11
B16 | inactive: 1.03
B17 | inactive: 1.68
B18 | inactive: 1.4
B19 | inactive: 0.755

Binder | enrichment score
B20 | inactive: 0.852
B21 | inactive: 0.717
B22 | inactive: 0.584
B23 | inactive: 1.91
B24 | inactive: 0.286
B25 | inactive: 0.802
B26 | inactive: 3.1
B27 | inactive: 0.645
B28 | inactive: 0.653
B29 | inactive: 0.756
B30 | inactive: 0.835
B31 | inactive: 0.724
B32 | inactive: 0.967
B33 | inactive: 0.488
B34 | inactive: 0.328
B35 | inactive: 0.645
B36 | inactive: 0.884
B37 | inactive: 0.983

These binders were tested against SHP2 N-SH2 domain L43F in the same assay as above. Conditions: peptide library: pTyr-Var.

Binder | enrichment score
B1 | inactive: 0.746
B2 | active: 3.78
B3 | inactive: 0.489
B4 | inactive: 0.91
B5 | inactive: 0.812
B6 | inactive: 0.504
B7 | inactive: 0.863
B8 | inactive: 0.342
B9 | inactive: 0.231
B10 | active: 3.39
B11 | inactive: 1.02
B12 | inactive: 1.06
B13 | inactive: 0.323
B14 | inactive: 1.61
B15 | inactive: 2.85
B16 | inactive: 0.995
B17 | inactive: 1.76
B18 | inactive: 0.887
B19 | inactive: 0.719

Binder | enrichment score
B20 | inactive: 0.847
B21 | inactive: 0.958
B22 | inactive: 0.681
B23 | inactive: 1.83
B24 | inactive: 0.281
B25 | inactive: 0.955
B26 | inactive: 2.75
B27 | inactive: 0.571
B28 | inactive: 0.691
B29 | inactive: 0.801
B30 | inactive: 0.801
B31 | inactive: 0.732
B32 | inactive: 1.13
B33 | inactive: 0.504
B34 | inactive: 0.265
B35 | inactive: 0.853
B36 | inactive: 0.881
B37 | inactive: 0.891

What follows are binders tested against SHP2 N-SH2 domain T42A in the same assay as above. Conditions: peptide library: pTyr-Var.

Binder | enrichment score
B1 | inactive: 0.795
B2 | active: 3.47
B3 | inactive: 0.496
B4 | inactive: 0.828
B5 | inactive: 0.624
B6 | inactive: 0.396
B7 | inactive: 0.695
B8 | inactive: 0.572
B9 | inactive: 0.237
B10 | inactive: 2.53
B11 | inactive: 0.689
B12 | inactive: 0.907
B13 | inactive: 0.346
B14 | inactive: 1.32
B15 | inactive: 2.25
B16 | inactive: 1
B17 | inactive: 1.73
B18 | inactive: 1.13
B19 | inactive: 0.684

Binder | enrichment score
B20 | inactive: 0.551
B21 | inactive: 0.701
B22 | inactive: 0.505
B23 | inactive: 1.55
B24 | inactive: 0.397
B25 | inactive: 0.718
B26 | inactive: 2.55
B27 | inactive: 0.6
B28 | inactive: 0.609
B29 | inactive: 0.586
B30 | inactive: 0.763
B31 | inactive: 0.573
B32 | inactive: 0.97
B33 | inactive: 0.473
B34 | inactive: 0.346
B35 | inactive: 0.964
B36 | inactive: 0.921
B37 | inactive: 0.891

The binders below were run against SHP2 N-SH2 domain T52S in the same assay as above. Conditions: peptide library: pTyr-Var.

Binder | enrichment score
B1 | inactive: 0.772
B2 | active: 3.24
B3 | inactive: 0.367
B4 | inactive: 0.855
B5 | inactive: 0.743
B6 | inactive: 0.376
B7 | inactive: 0.847
B8 | inactive: 0.232
B9 | inactive: 0.564
B10 | inactive: 2.81
B11 | inactive: 0.951
B12 | inactive: 0.942
B13 | inactive: 0.266
B14 | inactive: 1.69
B15 | inactive: 2.31
B16 | inactive: 1.3
B17 | inactive: 1.68
B18 | inactive: 0.918
B19 | inactive: 0.736

Binder | enrichment score
B20 | inactive: 0.781
B21 | inactive: 0.847
B22 | inactive: 0.594
B23 | inactive: 1.97
B24 | inactive: 0.374
B25 | inactive: 0.675
B26 | inactive: 3.07
B27 | inactive: 0.739
B28 | inactive: 0.639
B29 | inactive: 0.83
B30 | inactive: 0.736
B31 | inactive: 0.684
B32 | inactive: 1.1
B33 | inactive: 0.68
B34 | inactive: 0.18
B35 | inactive: 0.642
B36 | inactive: 0.915
B37 | inactive: 0.874

What follows are binders tested against SHP2 N-SH2 domain wild-type in the same assay as above. Conditions: peptide library: pTyr-Var.

Binder | enrichment score
B1 | inactive: 0.723
B2 | active: 3.25
B3 | inactive: 0.495
B4 | inactive: 1.07
B5 | inactive: 0.735
B6 | inactive: 0.334
B7 | inactive: 1.16
B8 | inactive: 0.374
B9 | inactive: 0.322
B10 | inactive: 2.96
B11 | inactive: 0.803
B12 | inactive: 1.06
B13 | inactive: 0.239
B14 | inactive: 2.27
B15 | inactive: 2.93
B16 | inactive: 0.826
B17 | inactive: 1.7
B18 | inactive: 1.42
B19 | inactive: 0.874

Binder | enrichment score
B20 | inactive: 1.05
B21 | inactive: 0.865
B22 | inactive: 0.577
B23 | inactive: 1.98
B24 | inactive: 0.527
B25 | inactive: 0.938
B26 | active: 3.21
B27 | inactive: 0.544
B28 | inactive: 0.76
B29 | inactive: 0.873
B30 | inactive: 0.715
B31 | inactive: 0.889
B32 | inactive: 1.21
B33 | inactive: 0.772
B34 | inactive: 0.268
B35 | inactive: 0.92
B36 | inactive: 0.869
B37 | inactive: 0.919
